Hit rate of the full screen: of about 110,000 compounds, about 230 (0.21%) showed an effect of 50% or more. This is one part of the list.
What follows are molecules tested against DPAP1 (Plasmodium falciparum, UniProt Q8IIJ9) (assay: primary screen, percent inhibition; read by cleavage of a fluorogenic dipeptide substrate; higher = more effect of the substance).
Sequence of DPAP1 (Q8IIJ9 whole entry, looked up): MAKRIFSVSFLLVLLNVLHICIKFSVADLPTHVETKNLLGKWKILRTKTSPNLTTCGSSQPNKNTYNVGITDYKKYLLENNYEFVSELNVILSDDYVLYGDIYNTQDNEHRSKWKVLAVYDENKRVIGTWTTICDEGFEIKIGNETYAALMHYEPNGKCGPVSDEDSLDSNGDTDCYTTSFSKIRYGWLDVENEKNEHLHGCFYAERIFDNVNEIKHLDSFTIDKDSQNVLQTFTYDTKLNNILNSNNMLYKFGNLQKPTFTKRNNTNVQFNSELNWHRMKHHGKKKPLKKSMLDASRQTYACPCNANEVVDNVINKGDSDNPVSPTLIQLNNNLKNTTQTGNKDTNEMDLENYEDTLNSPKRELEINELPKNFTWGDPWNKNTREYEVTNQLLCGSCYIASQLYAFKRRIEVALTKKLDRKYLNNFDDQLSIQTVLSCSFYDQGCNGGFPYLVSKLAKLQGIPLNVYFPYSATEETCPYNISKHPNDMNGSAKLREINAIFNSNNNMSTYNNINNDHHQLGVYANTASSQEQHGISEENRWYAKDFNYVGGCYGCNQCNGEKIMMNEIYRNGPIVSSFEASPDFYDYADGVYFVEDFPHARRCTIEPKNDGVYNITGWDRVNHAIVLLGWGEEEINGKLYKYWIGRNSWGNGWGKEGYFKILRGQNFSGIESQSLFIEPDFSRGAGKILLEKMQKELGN
Set-up: species or system P. falciparum D10 trophozoite lysates; single well
In the case of Cc1nn(CC(=O)NCCCN2CCN(Cc3ccccc3)CC2)c(=O)c2cccn12, the “% Inhibition @ 10 uM” value is reported as 1%. With CCOc1ccc(C2C(C(=O)c3ccc(F)cc3)=C(O)C(=O)N2CCCCCC(=O)O)cc1 (stereo not shown) the “% Inhibition @ 10 uM” value was -0.178%. For CCOc1cc(/C=C2/C(=N)N3C(SCC(C)C)=NSC3=NC2=O)ccc1O, the “% Inhibition @ 10 uM” value was -6.51%. With Cc1cc(C)n(-c2cc(C)c3ccccc3n2)n1 the “% Inhibition @ 10 uM” value was -1.59%. Cc1c2cnn(CC(=O)NCCCN3CCc4ccccc4C3)c(=O)c2c(C)n1Cc1ccccc1 was tested, and the “% Inhibition @ 10 uM” value was -0.447%. In the case of O=C(c1ccco1)N1CCN(C2(c3ccccc3)C(=O)c3ccccc3C2=O)CC1, the “% Inhibition @ 10 uM” value is reported as -1.42%. With O=C(c1ccc2nc(/C=C(\O)c3ccc(Cl)cc3)c(O)nc2c1)N1CCN(c2ccco2)CC1 the “% Inhibition @ 10 uM” value was 5.62%. In the case of COc1ccc(N2CCN(Cc3ccc(F)cc3F)CC2)cc1, the “% Inhibition @ 10 uM” value is reported as 1.4%. In the case of Cn1cc(CCC(=O)NCCCc2ccccc2)c2ccccc21, the “% Inhibition @ 10 uM” value is reported as -1.68%. For COc1ccc(C(=O)c2ccc(Br)cc2)c2ccccc12, the “% Inhibition @ 10 uM” value was 0.467%. CCOC(=O)C1=CN(C(C)C)C=C(C(=O)OCC)C1c1cc(OC)c(OC)c(OC)c1 was tested, and the “% Inhibition @ 10 uM” value was -1.48%. In the case of Cc1csc(NC(=O)c2ccccc2)n1, the “% Inhibition @ 10 uM” value is reported as -1.41%. For CC(=O)N1CCC(NCCc2ccccc2)CC1, the “% Inhibition @ 10 uM” value was -5.31%. In the case of COc1cc2c(cc1OC)N=C(c1cc(OC)c(OC)cc1NC(C)=O)CC2, the “% Inhibition @ 10 uM” value is reported as -9.29%. In the case of Nc1n[nH]c(CC(=O)NC2(C(=O)Nc3ccccc3)CCCCC2)n1, the “% Inhibition @ 10 uM” value is reported as -3.09%. CCOc1ccc(C2CC(=O)NC(SCc3ccccc3)=C2C#N)cc1 (stereo not shown) was tested, and the “% Inhibition @ 10 uM” value was -4.49%. For O=C(NCc1ccc2c(c1)OCO2)NCc1noc2ccccc12, the “% Inhibition @ 10 uM” value was -2.3%. Cc1cc(=O)oc2c3c(ccc12)OCN(Cc1ccc(C(=O)O)cc1)C3 was tested, and the “% Inhibition @ 10 uM” value was -1.71%. FC(F)(F)c1cc(-c2cccs2)nc(N2CCCCC2)n1 was tested, and the “% Inhibition @ 10 uM” value was 1.83%. For Cc1nnc2c3ccccc3nc(NCCC3=CCCCC3)n12, the “% Inhibition @ 10 uM” value was 1.74%. COc1cc(CN2CCCN(C)CC2)ccc1O was tested, and the “% Inhibition @ 10 uM” value was -0.261%. In the case of COc1ccccc1OCC(O)Cn1c[n+](C)c2cc(C)c(C)cc21 (stereo not shown), the “% Inhibition @ 10 uM” value is reported as -6.69%. CC(C)Oc1ccc(CNC(=O)C(C)n2ccc3cc(S(=O)(=O)N4CCCC4)ccc32)cc1 (stereo not shown) was tested, and the “% Inhibition @ 10 uM” value was 9.64%. For O=C1c2ccccc2-c2c1cccc2C(=O)N1CCCCC1, the “% Inhibition @ 10 uM” value was -4.93%. For C=CCSc1nnc(-c2ccco2)n1-c1ccccc1, the “% Inhibition @ 10 uM” value was -1.71%. For Cc1cc(C)c(Cn2c3ccccc3c3cnn(CC(=O)N4CCN(C)CC4)c(=O)c32)c(C)c1, the “% Inhibition @ 10 uM” value was -7.1%. COc1ccccc1N(CC(=O)N1CCOCC1)S(=O)(=O)c1ccc(C)cc1 was tested, and the “% Inhibition @ 10 uM” value was 1.64%. In the case of O=S(=O)(NCc1csc(-c2ccccc2)n1)c1cc(F)ccc1F, the “% Inhibition @ 10 uM” value is reported as -2.45%. For Cc1ccc(CSc2nc3ccc(C(=O)N4CCN(C(=O)c5ccco5)CC4)cc3n2C)cc1, the “% Inhibition @ 10 uM” value was -7.32%. In the case of CC1=CSC2=NC(=O)/C(=C/c3cc(C)n(-c4ccc(F)cc4)c3C)C(=N)N12, the “% Inhibition @ 10 uM” value is reported as 2.25%. For O=C(c1nn2c(C(F)(F)F)cc(-c3ccccc3)nc2c1Cl)N1CCOCC1, the “% Inhibition @ 10 uM” value was -2.88%. With O=C(/C=C/c1ccco1)NC(Cc1ccccc1)c1ccccc1 (stereo not shown) the “% Inhibition @ 10 uM” value was 3.47%. With CC(=O)N1CCN(c2ccc(NC(=O)C(c3ccccc3)c3ccccc3)cc2)CC1 the “% Inhibition @ 10 uM” value was 5.12%. With Oc1ccc(-c2nc3ccc4ccccc4c3c3c2CCC3)cc1O the “% Inhibition @ 10 uM” value was 6.15%. With O=[N+]([O-])c1ccccc1S(=O)(=O)n1cnc2ccccc21 the “% Inhibition @ 10 uM” value was 3.47%. For CCOc1ccc(N2C(=O)CC(N(Cc3ccc(OC)cc3)C(C)=O)C2=O)cc1 (stereo not shown), the “% Inhibition @ 10 uM” value was -1.04%. For CC1=C(C(=O)NCc2ccc3c(c2)OCO3)C2(CCC(C)CC2)OC1=O (stereo not shown), the “% Inhibition @ 10 uM” value was 3.19%. For CSc1nc2sc3c(c2c(=O)n1Cc1ccccc1)CCCC3, the “% Inhibition @ 10 uM” value was 2.92%. COc1cccc(/C=C2\CS/C(=C\c3cccc(OC)c3OC)C2=O)c1OC was tested, and the “% Inhibition @ 10 uM” value was -2.56%. In the case of COc1cc(C2C3=C(O)CC(C)(C)CC3=NC(C)=C2C(=O)Nc2nc3ccccc3s2)ccc1O (stereo not shown), the “% Inhibition @ 10 uM” value is reported as 0.611%. With O=C(c1ccc(Cl)cc1)N1CCCc2ccccc21 the “% Inhibition @ 10 uM” value was -7.28%. For COc1ccc(C2C3=C(O)CCCC3=NC3=C2C(=O)CCC3)cc1 (stereo not shown), the “% Inhibition @ 10 uM” value was 2.7%. In the case of CSc1ccc(CCNC(=O)CCCn2c(=O)c3cccn3c3cccnc32)cc1, the “% Inhibition @ 10 uM” value is reported as -2.73%. For CC1=NOC(=O)/C1=C\c1ccc(OCC(=O)O)c(Br)c1, the “% Inhibition @ 10 uM” value was -3.63%. With CSc1ccc(CN2CCN(Cc3cccnc3)CC2)cc1 the “% Inhibition @ 10 uM” value was -6.34%. For CC1=C(C(=O)Nc2cccc(F)c2)C(c2ccc(N(C)C)cc2)C2=C(O)CC(C)(C)CC2=N1 (stereo not shown), the “% Inhibition @ 10 uM” value was -4.49%. In the case of Cn1c(C(=O)NCc2cccnc2)cc2sccc21, the “% Inhibition @ 10 uM” value is reported as -6.68%. CCOc1ccccc1N1CCN(C(=O)c2cc(OC)cc(OC)c2)CC1 was tested, and the “% Inhibition @ 10 uM” value was -6.01%. In the case of CN(C)c1ccnc(SCc2ccccc2Cl)c1C#N, the “% Inhibition @ 10 uM” value is reported as 0.634%.

Source: PMC6919601, “Identification of Plasmodium dipeptidyl aminopeptidase allosteric inhibitors by high throughput screening” (PLoS ONE, 2019)
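Further: 30 min substrate incubation versus DMSO and 10 µM JCP410 controls.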
